# Source: PubChem BioAssay AID2546 (National Center for Advancing Translational Sciences (NCATS), 2010)
# “And” between values parts separate entries of the source, which are not always exact repeats. Equal values may be shown once. The campaign covered roughly 310,000 compounds. About 11,000 (3.5%) were called active. The shares of active, inactive and inconclusive entries below differ from those in the screen. Calls follow the shape of the dose curve; as a rule, active = well fitted inhibition curve with a large enough effect; inconclusive = small, poorly fitted or top-dose-only effect, or effect the other way; inactive = flat fitted curve, though single readings scatter. No potency is given beside an inconclusive call; the fits are too rough.
# Assay: VP16 counterscreen qHTS for inhibitors of ROR gamma transcriptional activity;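 also: Gal4-VP16 expression switched on by copper sulfate through the metallothionein promoter; nearly all actives have a fitted effect of over 50% in size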
# Settings: Drosophila S2 Gal4-VP16 UAS-luciferase, luminescence, 20 h; activity, negative = inhibition: at 53.6 µM (top of the series)
# % is scaled to controls: 0 for no effect and ±100 for the full control effect; potency is read from the fitted curve at half-maximal effect; tags tell the direction and shape of the fitted curve.
SMILES,Potency,"activity, negative = inhibition"
C=CCN1C(=Nc2cccnc2)SCC1(O)c1ccc(C)cc1 (configuration not stated),"inconclusive [inhibitor, single point]",–
c1ccc(C2c3c(ccc4ccccc34)Oc3ncn4nc(-c5ccco5)nc4c32)cc1 (configuration not stated),"inconclusive [activator, single point]",–
CCN1CCN(CCNC(=O)C2CCN(Cc3nc(-c4ccc(Cl)cc4)oc3C)CC2)CC1,inactive,–
CN1N=C(C(=O)Nc2ccc3c(c2)CCC3)CCC1=O,"inconclusive [activator, single point]",–
COC(=O)c1[nH]c2cc(OC)ccc2c1NC(=O)CN1CCC(C(N)=O)CC1,inactive,–
CC(C)C1C(=O)NC(=S)N1S(=O)(=O)c1ccc(C(C)(C)C)cc1 (configuration not stated),inactive,–
CSc1nnc(Cc2sc(-c3ccccc3)nc2-c2ccccc2)o1,"inconclusive [inhibitor, single point]",–
O=c1[nH]cnc(O)c1C(c1ccc([N+](=O)[O-])cc1)c1c(O)nc[nH]c1=O,inactive,–
CC1=C(n2nnc([N+](=O)[O-])n2)C(c2cccnc2)C(C#N)=C(N)O1 (configuration not stated),"inconclusive [inhibitor, single point]",–
CCCCNC(=O)c1ccccc1Cl,"inconclusive [activator, single point]",–
O=C(O)c1cc(/C=C/C(=O)c2cc(F)ccc2O)c2c(c1)COCO2,active: 10 µM,–
Cc1ccccc1CSc1n[nH]c(NS(=O)(=O)c2ccccc2)n1,"inconclusive [inhibitor, single point]",–
CC(=O)c1cccc(NC(=S)NC2CCCCCCC2)c1,active: 12.6 µM,–
O=C(NNC(=S)NC(=O)c1ccccc1)c1cccc([N+](=O)[O-])c1,active: 11.2 µM,–
COc1ccc(OC)c(Nc2nc(NCCCN(C)C)nc(N)c2[N+](=O)[O-])c1,active: 10 µM,–
Cn1c(=O)c(=O)n(C)c2cc([N+](=O)[O-])c([N+](=O)[O-])cc21,"inconclusive [inhibitor, single point]",–
COc1ccc(C(=O)C2CCCN(S(=O)(=O)c3cccc(C)c3)C2)c(C)c1 (configuration not stated),"inconclusive [inhibitor, single point]",–
CN(C)S(=O)(=O)c1cccc(-c2cn3cc(Cl)ccc3n2)c1,"inconclusive [activator, partial curve]",–
O=C1CCCc2nc(N3CCN(Cc4ccccc4)CC3)ncc21,"inconclusive [inhibitor, single point]",–
CC(=O)N[C@@H](C)c1nc2ccccc2n1CCCN1CCN(c2nc(-c3ccc(C)cc3)cs2)CC1,inactive,–
O=C1c2ccccc2C2=Nc3ccccc3SC(c3ccccc3F)C12 (configuration not stated),"inconclusive [inhibitor, partial curve]",–
CCCCCCNc1nc(-c2ccc(OC)cc2)c(CCC(=O)O)s1,active: 15.8 µM,–
Cc1ccc(NC(=O)CS(=O)CC(=O)NCC2OCCc3ccccc32)c(C)c1 (configuration not stated),inactive,–
O=C(/C=C/c1cccc([N+](=O)[O-])c1)c1cccs1,"inconclusive [inhibitor, single point]",–

SMILES,Potency,"activity, negative = inhibition"
COC(=O)c1cc(OC)c(OC)cc1NC(=O)Nc1ccccc1OC,inactive,–
COc1cccc2cc(-c3nnc(SCC(=O)Nc4cc(C(F)(F)F)ccc4Cl)n3N)oc12,"inconclusive [inhibitor, single point]",–
COc1ccccc1/C=N/NC(=O)CO,–,inactive: -12.7% [at 10 µM]
S=c1[nH]nc(-c2cccnc2)n1/N=C/c1ccc(Br)s1,"inconclusive [inhibitor, partial curve]",–
O=C(/C=C/c1ccc([N+](=O)[O-])cc1)c1cccnc1,active: 22.4 µM,–
CC(=NCc1ccco1)c1c(C)[nH]n(-c2nc3ccccc3s2)c1=O,"inconclusive [inhibitor, single point]",–
Cc1cccc2nc(CSc3nc4[nH]ncc4c(=O)n3-c3cccc(Cl)c3)cc(=O)n12,"inconclusive [inhibitor, single point]",–
COC(=O)c1ccc(CSc2ccc3nnc(-c4ccccn4)n3n2)o1,"inconclusive [inhibitor, single point]",–
Cc1cccc2c1-c1sc(C(=O)N3CCc4ccccc4C3)cc1CO2,"inconclusive [inhibitor, single point]",–
Clc1ccc(-c2csc(N/N=C\c3cccnc3)n2)cc1,"inconclusive [activator, single point]",–
O=C(CSc1nnc(Cc2ccsc2)o1)c1ccccc1,"inconclusive [activator, single point]",–
CCc1ccc(-c2nc(CN3CCC(C(=O)NCc4ccccc4OC)CC3)c(C)o2)cc1,active: 20 µM,–
Cn1c(=O)c(-c2cc(F)cc(F)c2)nc2cnc(Nc3ccccc3)nc21,"inconclusive [inhibitor, single point]",–
O=C(c1ccccc1)N1N=C(C(F)(F)F)CC1(O)c1ccccc1 (configuration not stated),"inconclusive [inhibitor, single point]",–
CCn1c(O)c(C=Nc2ccccc2)sc1=S,"inconclusive [inhibitor, single point]",–
CC(C)C1Cc2c(sc3ncnc(NN)c23)CO1 (configuration not stated),"inconclusive [inhibitor, single point]",–
O=[N+]([O-])c1ccc(/C=N/NS(=O)(=O)c2ccc(Cl)cc2)o1,"inconclusive [inhibitor, single point]",–
CC(C)(C)C1CCc2c(C(=O)NNC(=O)/C=C/C(=O)O)csc2C1 (configuration not stated),active: 14.1 µM,–
CC(NC(=O)NC(N)=O)(C(F)(F)F)C(F)(F)F,inactive,–
C/C(CC(=O)Nc1ccc(C)c(Cl)c1)=N\NC(=O)Cc1ccccc1,"inconclusive [inhibitor, single point]",–
COc1ncc2nc(-c3cc(F)cc(F)c3)c(=O)n(-c3ccccc3)c2n1,inactive,–
CS(=O)(=O)N1CCN(c2ccc(NC(=S)NC(=O)c3ccccc3[N+](=O)[O-])cc2)CC1,"inconclusive [inhibitor, single point]",–
CCc1c(C)nc(SCCOc2ccc(OC(C)C)cc2)[nH]c1=O,"inconclusive [inhibitor, single point]",–
COc1ccc(-c2n[nH]c(C)c2-c2ccc(Cl)cc2)c(O)c1,active: 7.08 µM,–

SMILES,Potency,"activity, negative = inhibition"
CC(Oc1ccc(C(=O)c2ccccc2)cc1)C(=O)Nc1ccc(S(N)(=O)=O)cc1 (configuration not stated),"inconclusive [inhibitor, single point]",–
Cc1ccc2nc(-c3ccc(NC(=O)CN4CCN(C(=O)c5ccco5)CC4)cc3)sc2c1,"inconclusive [inhibitor, partial curve]",–
Cn1nc(-c2ccccc2)c(CN2CCN(c3ncccn3)CC2)c1Cl,inactive,–
Cc1cc(C)c2sc(NC(=O)c3ccc([N+](=O)[O-])o3)nc2c1,active: 10 µM,–
Fc1ccccc1NC(=S)NCCc1ccccc1,"inconclusive [inhibitor, single point]",–
CCOC(=O)CCN1C(=O)[C@H]2[C@H]3[C@H](O)[C@H](O)C/C(=N/OC/C=C(\C)CCC=C(C)C)[C@@H]3CC[C@@H]2C1=O,–,inactive: -8.15% [at 10 µM]
C/C(CC(=O)NC12CC3CC(CC(C3)C1)C2)=N\NC(=O)Cc1cccs1,"inconclusive [inhibitor, single point]",–
O=C(NCc1cccc(C(F)(F)F)c1)C1CC(c2cccc(F)c2)=NO1 (configuration not stated),inactive,–
Cc1nn2cc(-c3ccccc3)nc2s1,"inconclusive [inhibitor, full curve]",–
Cc1cc(N/N=C/c2ccc(O)cc2O)c2ccccc2n1,"inconclusive [inhibitor, single point]",–
O=C(CCOc1ccccc1)Nc1ccccc1F,inactive,–
Cc1cccc(C)c1NC(=S)NCCc1ccccn1,active: 2.82 µM,–
Cn1cccc1/C=N/NC(=O)C12CC3CC(CC(C3)C1)C2,"inconclusive [inhibitor, single point]",–
CCCCN(CCCC)C(=S)NC(=O)C(C)(C)C,active: 6.31 µM,–
O=C(c1ccco1)N1CCN(c2ccc(Cl)cc2)CC1,"inconclusive [activator, full curve]",–
O=C(O)CSCCOc1ccc(OCCSCC(=O)O)cc1,"inconclusive [inhibitor, single point]",–
O=C(Nc1ccc2oc(-c3cccnc3)nc2c1)c1cccnc1,inactive,–
COc1ccc(O)c(-c2cc(-c3ccccc3[N+](=O)[O-])[nH]n2)c1,"inconclusive [activator, single point]",–
CCOC(=O)N1CCN(C(=O)c2ccc3c(c2)N=C(C)c2cc(Cl)ccc2S3)CC1,inactive,–
Cc1nn(C)cc1C(C(=O)NC1CCCCC1)N(C(=O)c1cnccn1)c1ccc(Oc2ccccc2)cc1 (configuration not stated),"inconclusive [activator, single point]",–
NS(=O)(=O)C#Cc1ccccc1,"inconclusive [inhibitor, single point]",–
c1ccc(C(CN2CCOCC2)c2ccccc2)cc1,inactive,–
COc1cccc([C@H]2Oc3ccc(OC)cc3/C(=N\O[C@@H](C)c3cn([C@H](CO)Cc4ccccc4)nn3)[C@@H]2O)c1,–,inactive: -3.08% [at 10 µM] and inactive: 1.11% [at 10 µM]
CC12CCC(=O)N1C(C(=O)Nc1nc3c(F)cc(F)cc3s1)CS2 (configuration not stated),active: 3.55 µM,–
